Experimental data: PubChem BioAssay AID248 (DTP/NCI, 2004)
Toxic doses and inconclusive results are not listed. Some entries of the source have several records that differ or are many. They are shown here; other results are not. The source may hold further records. Values that stand side by side are repeated measurements (runs, samples, wells, individuals or studies).

Tested on: L1210 leukemia ip in BDF1 mice, survival T/C
Test: NCI In Vivo Anticancer Drug Screen. Data for tumor model L1210 Leukemia (intraperitoneal) in B6D2F1 (BDF1) mice
Conditions: endpoint: mean survival time, higher = longer survival

With O=c1[nH]c(-c2ccccc2N=NN2CCCCC2)nc2ccccc12 as the compound, how does the T/C (dose: 100.0 mg/kg/injection, schedule: Q04DX002 (ip), vehicle: saline with Tween-80) read?
The T/C was 95 % of control and 163 % of control.

What does the source list for Nc1nc(=S)c2[nH]cnc2[nH]1?
T/C (dose: 1.75 mg/kg/injection, schedule: Q07DX003 (ip), vehicle: saline): 110 % of control and 152 % of control; T/C (dose: 4.0 mg/kg/injection, schedule: Q01DX Z (oral), vehicle: saline): 101 % of control and 152 % of control

Which results are given for CS(=O)(=O)OCC(=O)NCCNC(=O)COS(C)(=O)=O?
T/C (dose: 200.0 mg/kg/injection, schedule: Q01DX015 (ip), vehicle: saline): 118 % of control and 155 % of control; T/C (dose: 400.0 mg/kg/injection, schedule: Q01DX009 (ip), vehicle: saline): 105 % of control and 160 % of control

For O=C1c2ccccc2-c2ccc(N3C(=O)c4ccccc4C3=O)cc21, which T/C (dose: 25.0 mg/kg/injection, schedule: Q01DX001 (ip), vehicle: saline with Tween-80) is on record?
The T/C was 87 % of control and 163 % of control.

What does the source list for CC(=O)OCC1OC(n2ncc(=O)[nH]c2=O)C(OC(C)=O)C1OC(C)=O (stereo not given)?
T/C (dose: 125.0 mg/kg/injection, schedule: Q01DX Z (im), vehicle: carboxymethylcellulose (CMC)): 108 % of control and 153 % of control; T/C (dose: 250.0 mg/kg/injection, schedule: Q01DX Z (oral), vehicle: carboxymethylcellulose (CMC)): 96 % of control and 157 % of control

Which T/C (dose: 100.0 mg/kg/injection, schedule: Q01DX009 (ip), vehicle: saline) does the source give for O=C1CN(CO)C(=O)CN1CO here?
Its T/C is 97 % of control and 170 % of control.

How did the T/C (dose: 11.0 mg/kg/injection, schedule: Q01DX Z (ip), vehicle: carboxymethylcellulose (CMC)) turn out when COC(=O)c1[nH]c(=O)[nH]c(=O)c1F was run?
The T/C was 110 % of control and 172 % of control.
